{"source": "the supplement of paper PMC4604168 (melanoma cell lines)", "note": "The list shows a part of the results. Repeats are few or missing, and single values can be far off.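 Further: cell number obtained by counting DAPI-stained nuclei in high-throughput microscope images with image analysis software, screen run in 1,536-well plates.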", "data": [{"test_system": "A101D", "assay": "cell count relative to DMSO control; melanoma cells; higher = more viable cells", "settings": "library dose: low library concentration; 72 h", "units": {"cell count": "%"}, "values": [{"smiles": "O=C(O)[C@@H]1[O][Sb](=[O])([O][Sb]2(=[O])[O][C@H]([C@H](O)CO)[C@H](O)[C@H](C(=O)O)[O]2)[O][C@H]([C@H](O)CO)[C@@H]1O", "note": "(stereo partly drawn) [stibogluconate] + COc1cc(Nc2ncc(F)c(Nc3ccc4c(n3)NC(=O)C(C)(C)O4)n2)cc(OC)c1OC [Tamatinib] (first compound 2 µM, partner dose 0.4 µM)", "cell count": 83.6}, {"smiles": "O=C(Nc1cc(C(F)(F)F)cc(C(F)(F)F)c1)c1cc(Cl)ccc1O", "note": "+ CC1(C)CCC(c2ccc(Cl)cc2)=C(CN2CCN(c3ccc(C(=O)NS(=O)(=O)c4ccc(N[C@H](CCN5CCOCC5)CSc5ccccc5)c(S(=O)(=O)C(F)(F)F)c4)cc3)CC2)C1 [ABT263] (first compound 0.016 µM, partner dose 0.4 µM)", "cell count": 56.9}, {"smiles": "O=C(O)[C@@H]1[O][Sb](=[O])([O][Sb]2(=[O])[O][C@H]([C@H](O)CO)[C@H](O)[C@H](C(=O)O)[O]2)[O][C@H]([C@H](O)CO)[C@@H]1O", "note": "(stereo partly drawn) [stibogluconate] + C=CCn1c(=O)c2cnc(Nc3ccc(N4CCN(C)CC4)cc3)nc2n1-c1cccc(C(C)(C)O)n1 [MK1775] (first compound 2 µM, partner dose 0.02 µM)", "cell count": 78}, {"smiles": "O=C(Nc1cc(C(F)(F)F)cc(C(F)(F)F)c1)c1cc(Cl)ccc1O", "note": "+ CN(c1ncccc1CNc1nc(Nc2ccc3c(c2)CC(=O)N3)ncc1C(F)(F)F)S(C)(=O)=O [PF562271] (first compound 0.016 µM, partner dose 0.08 µM)", "cell count": 82.8}, {"smiles": "O=C(Nc1cc(C(F)(F)F)cc(C(F)(F)F)c1)c1cc(Cl)ccc1O", "note": "+ COc1ccc(C2=N[C@@H](c3ccc(Cl)cc3)[C@@H](c3ccc(Cl)cc3)N2C(=O)N2CCNC(=O)C2)c(OC(C)C)c1 [Nutlin-3] (first compound 0.016 µM, partner dose 0.1 µM)", "cell count": 102}, {"smiles": "O=C(Nc1cc(C(F)(F)F)cc(C(F)(F)F)c1)c1cc(Cl)ccc1O", "note": "+ CN1CCN(c2ccc3nc(-c4c(N)c5c(F)cccc5[nH]c4=O)[nH]c3c2)CC1 [Dovitinib] (first compound 0.016 µM, partner dose 0.1 µM)", "cell count": 92.7}, {"smiles": "Cc1cc(N2CCOCC2)cc2[nH]c(-c3c(NC[C@@H](O)c4cccc(Cl)c4)cc[nH]c3=O)nc12", "note": "+ OCCn1cc(-c2cnc3nnn(Cc4ccc5ncccc5c4)c3n2)cn1 [PF04217903] (first compound 0.2 µM, partner dose 1 µM)", "cell count": 91.2}, {"smiles": "O=C(O)[C@@H]1[O][Sb](=[O])([O][Sb]2(=[O])[O][C@H]([C@H](O)CO)[C@H](O)[C@H](C(=O)O)[O]2)[O][C@H]([C@H](O)CO)[C@@H]1O", "note": "(stereo partly drawn) [stibogluconate] + COc1ccc(Cl)c(Nc2nc3ccccc3nc2NS(=O)(=O)c2cccc(NC(=O)C(C)(C)N)c2)c1 [XL147] (first compound 2 µM, partner dose 0.8 µM)", "cell count": 109}, {"smiles": "O=C(O)c1ccc2c(c1)nc(Nc1cccc(Cl)c1)c1ccncc12", "note": "+ Nc1ccn([C@@H]2O[C@H](CO)[C@@H](O)C2(F)F)c(=O)n1 [gemcitabine] (first compound 0.4 µM, partner dose 0.0004 µM)", "cell count": 116}, {"smiles": "O=C(Nc1cc(C(F)(F)F)cc(C(F)(F)F)c1)c1cc(Cl)ccc1O", "note": "+ Cc1nc(Nc2ncc(C(=O)Nc3c(C)cccc3Cl)s2)cc(N2CCN(CCO)CC2)n1 [dasatanib] (first compound 0.016 µM, partner dose 0.004 µM)", "cell count": 79.2}, {"smiles": "O=C(O)c1ccc2c(c1)nc(Nc1cccc(Cl)c1)c1ccncc12", "note": "+ CCCS(=O)(=O)Nc1ccc(F)c(C(=O)c2c[nH]c3ncc(Cl)cc23)c1F [PLX4720] (first compound 0.4 µM, partner dose 0.08 µM)", "cell count": 85.7}, {"smiles": "O=C(Nc1cc(C(F)(F)F)cc(C(F)(F)F)c1)c1cc(Cl)ccc1O", "note": "+ Nc1nc(F)nc2c1ncn2[C@@H]1O[C@H](CO)[C@@H](O)[C@@H]1O [fludarabine] (first compound 0.016 µM, partner dose 0.2 µM)", "cell count": 106}, {"smiles": "O=C(O)c1ccc2c(c1)nc(Nc1cccc(Cl)c1)c1ccncc12", "note": "+ O=C(Nc1cccc(Cl)c1)Nc1ncc(CCNc2ncnc3ccsc23)s1 [SNS314] (first compound 0.4 µM, partner dose 0.0008 µM)", "cell count": 118}]}]}
